Reference: patent US11673947B2, “Target tissue-specific antigen-binding molecule” (Chugai Seiyaku Kabushiki Kaisha, priority 2012, dated 2023)

B1: H01: human IL-6-binding antibody derived from a library, control; SEQ ID NOs: 36 and 37 (antibody, listed as Homo sapiens)
heavy: QVQLVLSGAEVKKPGASVMVSCKASGYTFTDYYMHWVRQAPGQGLEWMGWINPQSGDTHYAQKFQGRVTMTRDTSVSTGYMQLSSLGSDDTAIYYCARGSLITAAGPPPFEHWGQGTMVTVSS[human IgG1 constant region not written out]
light: SYELTQPPSMSVSPGQTATMPCSGNGLGDKFVYWYQQKPGHSPVAVIYQDAKRPSGVPERFSGSNSGGSTATLTISGAQAMDEADYYCQAWDSGTAVFGTGTRLSILGQPKAAPSVTLFPPSSEELQANKATLVCLISDFYPGAVTVAWKADSSPVKAGVETTTPSKQSNNKYAASSYLSLTPEQWKSHRSYSCQVTHEGSTVEKTVAPTECS
B2: I6NMSC1-3_#03: antibody that binds to human IL-6 in the presence of kynurenine; SEQ ID NOs: 50 and 51 (antibody, listed as Homo sapiens)
heavy: [about 100 residues not written out]GPLVSDAFDIWGQGTMVTVSS[human IgG1 constant region not written out]
light: DIVMTQTPLSLSVTPGQPASISCKSSLSLLNRDGKTFLYWYLQKPGQSPQLLIYEVSSRFSGVPDRFSGSGSGTDFTLQINRVEADDAGVYYCMQGLHLPRTFGLRTKVEIKRTVAAPSVFIFPPSDEQLKSGTASVVCLLNNFYPREAKVQWKVDNALQSGNSQESVTEQDSKDSTYSLSSTLTLSKADYEKHKVYACEVTHQGLSSPVTKSFNRGEC

Tests used:
human IL6 [1] = molecular target: T1, human IL6 (Homo sapiens, UniProt P05231); assay type: binding; set-up: purchased Kamakura Techno-Science, Inc; details: antibody immobilized, 1 μmol/l IL-6 as analyte, 60 seconds, 25° C.
Procedure: Using Biacore T200 (GE Healthcare), A11 was analyzed for its interaction with human IL-6 (Kamakura Techno-Science, Inc.) in antigen-antibody reaction. Sensor chip CM5 (GE Healthcare) was immobilized with an appropriate amount of protein A/G (Invitrogen) by amine coupling. Antibodies of interest were captured by the chip to allow interaction to IL-6 as an antigen. The two types of running buffers used were 10 mmol/1 ACES, 150 mmol/l NaCl, 0.05% (w/v) Tween20, 100 μmol/l kynurenine, pH 7.4, and 10 mmol/1 ACES, 150 mmol/l NaCl, 0.05% (w/v) Tween20, pH 7.4. The interaction with IL-6 as an antigen was assessed at 37° C. The buffer used to dilute IL-6 was the same running buffer as described above.
A diluted solution of human IL-6 and a running buffer as a blank were injected at a flow rate of 5 μl/min for three minutes to allow interaction of human IL-6 with A11 captured on the sensor chip. […] The dissociation constant KD (M) of A11 was calculated for human IL-6 based on the association rate constant ka (1/Ms) and dissociation rate constant kd (1/s), both of which are kinetic parameters calculated from the sensorgram obtained by the measurement. Each parameter was calculated using the Biacore T200 Evaluation Software (GE Healthcare).
Then, the effect of kynurenine concentration on antigen-antibody reaction between A11 and human IL-6 was assessed using Biacore T200 (GE Healthcare). […]

human IL6 [2] = molecular target: T1, human IL6; assay: IgG ELISA, binding to human IL-6 in the presence or absence of each small molecule, amino acid or amino acid metabolite
Procedure: Three types of antibodies: isolated I6NMSC1-3_A11 (hereinafter abbreviated as A11), and CLB8-F1 and GC413 as controls were subjected to ELISA under the nine conditions described in Table 3. Meanwhile, each small molecule was appropriately prepared at the concentrations shown in Table 3 using the buffers indicated in Table 4. Biotin-labeled human IL-6 was used as the antigen.
First, a StreptaWell 96 microtiter plate (Roche) was coated at room temperature for one hour or more with 100 μl of PBS containing the biotin-labeled antigen. After washing with the Wash buffer to remove unbound antigen from the plate, each well was blocked for one hour or more with 250 μl of the Blocking Buffer. The Blocking Buffer was removed from each well. The purified IgGs were prepared to 2.5 μg/ml in a Sample Buffer containing small molecules at the final concentrations shown in Table 3, and each was aliquoted at 100 μl to each well of the plate. The plate was allowed to stand at room temperature for one hour to allow binding of each IgG to the antigen in each well. After washing with a Wash Buffer containing the small molecules at the final concentrations shown in Table 3, an HRP-conjugated anti-human IgG antibody (BIOSOURCE) diluted with a Sample Buffer containing the same small molecules was added to each well. The plate was incubated for one hour. Following wash with a Wash Buffer containing each small molecule, the TMB single solution (ZYMED) was added to each well. The chromogenic reaction in the solution of each well was terminated by adding sulfuric acid. Then, the developed color was assessed by measuring absorbance at 450 nm. […]
First, a StreptaWell 96 microtiter plate (Roche) was coated at room temperature for one hour or more with 100 μl of PBS containing a biotin-labeled antigen. […] Then, the developed color was assessed by measuring absorbance at 450 nm. […]

human IL6 [3] = molecular target: T1, human IL6; assay: Phage ELISA, binding to human IL-6 in the presence or absence of small molecule cocktail (SC); details: in the presence of SC
Procedure: Culture supernatants containing phages were collected according to a conventional method (Methods Mol. Biol. (2002) 178, 133-145) from single colonies of E. coli obtained by the method described above. The collected culture supernatants were treated by ultrafiltration using NucleoFast 96 ([…]-NAGEL). 100 μl of the collected culture supernatants were added to each well of NucleoFas96 and centrifuged (4500 g for 45 minutes) to remove the flow-through portion. 100 μl of H2O was added to each well, and again the NucleoFast 96 was centrifuged (4500 g for 30 minutes) for washing. After 100 μl of TBS was added, the NucleoFast 96 was allowed to stand for five minutes at room temperature. Finally, a phage suspension was collected from the supernatant in each well.
After addition of TBS or SC/TBS, the purified phages were subjected to ELISA by the following procedure. A StreptaWell 96 microtiter plate (Roche) was coated overnight with 100 μl of TBS containing the biotin-labeled antigen. After the antigen was removed by washing each well of the plate with TBST, the wells were blocked with 250 μl of 2% skim milk-TBS for one hour or more. 2% skim milk-TBS was removed, and then the prepared, purified phages were added to each well. […] Then, the developed color was assessed by measuring absorbance at 450 nm. […]

T1 sequence (P05231 30-212): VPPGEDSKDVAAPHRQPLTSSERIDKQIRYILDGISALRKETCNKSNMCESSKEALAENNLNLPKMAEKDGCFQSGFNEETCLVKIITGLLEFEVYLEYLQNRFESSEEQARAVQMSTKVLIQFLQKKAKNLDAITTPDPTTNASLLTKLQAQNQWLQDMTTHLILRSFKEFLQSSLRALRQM

Molecule | effect of kynurenine concentration on amount of IL-6 binding (human IL6 [1]) | absorbance under condition 7 compared to condition 8 (human IL6 [2]; condition 7 (100 μM kynurenine)) | absorbance under condition 9 as compared to condition 8 (human IL6 [2]; condition 9 (without small molecules) vs condition 8 (complete small molecule cocktail solution)) | absorbance under other conditions (human IL6 [2]; remaining single small molecule conditions of Table 3) | binding activity to human IL-6 in the presence of a small molecule cocktail (phage ELISA) (human IL6 [3])
B1 | not altered even if the kynurenine concentration changes |  |  |  | 
B2 |  | comparable | markedly lower | lower | exhibited binding activity
